Each compound was assayed against human CB2 receptor (hCB2) (Homo sapiens, UniProt P34972) (assay: cell-based). Conditions: not given.
Format: cell-based

Sequence of human CB2 receptor (hCB2) (P34972 whole entry): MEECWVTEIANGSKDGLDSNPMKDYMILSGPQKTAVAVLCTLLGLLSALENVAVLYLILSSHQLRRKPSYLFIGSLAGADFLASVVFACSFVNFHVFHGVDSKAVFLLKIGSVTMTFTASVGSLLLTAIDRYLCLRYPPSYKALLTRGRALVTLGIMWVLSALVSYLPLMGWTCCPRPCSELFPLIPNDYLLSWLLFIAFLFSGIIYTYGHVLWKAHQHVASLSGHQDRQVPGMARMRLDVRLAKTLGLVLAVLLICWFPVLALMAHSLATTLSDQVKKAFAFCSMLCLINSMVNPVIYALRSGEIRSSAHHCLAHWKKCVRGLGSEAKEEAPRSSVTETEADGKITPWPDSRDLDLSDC

Row | SMILES | EC50
1 | CNC(=O)[C@@H](NC(=O)c1nc(-c2ccccc2)n2c1CN(C(C)C)CC2)C(C)(C)C [Compound 85, (S)-N-(3,3-dimethyl-1-(methylamino)-1-oxobutan-2-yl)-7-isopropyl-3-phenyl-5,6,7,8-tetrahydroimidazo[1,5-a]pyrazine-1-carboxamide] | > 10000 nM
2 | Cc1ccc(-c2nc(C(=O)N[C@H](C(=O)O)C(C)(C)C)c3n2CCCN(C(=O)OC(C)(C)C)C3)c(F)c1 [Compound 516, (S)-2-(8-(tert-butoxycarbonyl)-3-(2-fluoro-4-methylphenyl)-6,7,8,9-tetrahydro-5H-imidazo[1,5-a][1,4]diazepine-1-carboxamido)-3,3-dimethylbutanoic acid] | > 10000 nM
3 | CNC(=O)[C@@H](NC(=O)c1nc(/C=C/CN2CCOCC2)n2c1CN(C)CCC2)C(C)(C)C [Compound 509, (S,E)-N-(3,3-dimethyl-1-(methylamino)-1-oxobutan-2-yl)-8-methyl-3-(3-morpholinoprop-1-enyl)-6,7,8,9-tetrahydro-5H-imidazo[1,5-a][1,4]diazepine-1-carboxamide] | > 10000 nM
4 | CNC(=O)[C@@H](NC(=O)c1nc(-c2cccc(S(=O)(=O)N3CCCC3)c2)n2c1CN(C)CCC2)C(C)(C)C [Compound 385, (S)-N-(3,3-dimethyl-1-(methylamino)-1-oxobutan-2-yl)-8-methyl-3-(3-(pyrrolidin-1-ylsulfonyl)phenyl)-6,7,8,9-tetrahydro-5H-imidazo[1,5-a][1,4]diazepine-1-carboxamide] | > 10000 nM
5 | CC(C)CCNC(=O)c1nc(-c2ccc(Cl)cc2)n2c1CN(C(=O)C1CC1)CC2 [Compound 131, 3-(4-chlorophenyl)-7-(cyclopropanecarbonyl)-N-isopentyl-5,6,7,8-tetrahydroimidazo[1,5-a]pyrazine-1-carboxamide] | > 10000 nM
6 | CNC(=O)[C@@H](NC(=O)c1nc(-c2cccc(OC)c2F)n2c1CN(C)CCC2)C(C)(C)C [Compound 346, (S)-N-(3,3-dimethyl-1-(methylamino)-1-oxobutan-2-yl)-3-(2-fluoro-3-methoxyphenyl)-8-methyl-6,7,8,9-tetrahydro-5H-imidazo[1,5-a][1,4]diazepine-1-carboxamide] | > 10000 nM
7 | CNC(=O)[C@@H]1CCCN1C(=O)c1nc(-c2ccccc2)n2c1CNCCC2 [Compound 602] | > 10000 nM

Same assay, conditions: agonist or inverse agonist at hCB2

Row | SMILES | +/− HCB2
8 | Cc1noc([C@@H](NC(=O)c2nc(-c3ccccc3)n3c2CN(C)CC3)C(C)(C)C)n1 [Compound 87, (S)-N-(2,2-dimethyl-1-(3-methyl-1,2,4-oxadiazol-5-yl)propyl)-7-methyl-3-phenyl-5,6,7,8-tetrahydroimidazo[1,5-a]pyrazine-1-carboxamide] | +
9 | CN1CCCn2c(-c3ccccc3)nc(C(=O)N[C@H](C(=O)NCCF)C(C)(C)C)c2C1 [Compound 476, (S)-N-(1-(2-fluoroethylamino)-3,3-dimethyl-1-oxobutan-2-yl)-8-methyl-3-phenyl-6,7,8,9-tetrahydro-5H-imidazo[1,5-a][1,4]diazepine-1-carboxamide] | +
10 | CNC(=O)[C@@H](NC(=O)c1nc(-c2ccccc2)n2c1CNCCC2)C(C)(C)C [Compound 314, (S)-N-(3,3-dimethyl-1-(methylamino)-1-oxobutan-2-yl)-3-phenyl-6,7,8,9-tetrahydro-5H-imidazo[1,5-a][1,4]diazepine-1-carboxamide] | +
11 | CNC(=O)[C@@H](NC(=O)c1nc(CCCN2CCCC2)n2c1CN(C)CC2)C(C)(C)C [Compound 308, (S)-N-(3,3-dimethyl-1-(methylamino)-1-oxobutan-2-yl)-7-methyl-3-(3-(pyrrolidin-1-yl)propyl)-5,6,7,8-tetrahydroimidazo[1,5-a]pyrazine-1-carboxamide] | +
12 | CNC(=O)[C@@H](NC(=O)c1nc(-c2cc(F)cc(F)c2)n2c1CN(C)CCC2)C(C)(C)C [Compound 331, (S)-3-(3,5-difluorophenyl)-N-(3,3-dimethyl-1-(methylamino)-1-oxobutan-2-yl)-8-methyl-6,7,8,9-tetrahydro-5H-imidazo[1,5-a][1,4]diazepine-1-carboxamide] | +
13 | CNC(=O)[C@H](CC(C)C)NC(=O)c1nc(-c2ccc(F)c(F)c2)n2c1CN(C)CC2 [Compound 278, (S)-3-(3,4-difluorophenyl)-7-methyl-N-(4-methyl-1-(methylamino)-1-oxopentan-2-yl)-5,6,7,8-tetrahydroimidazo[1,5-a]pyrazine-1-carboxamide] | +
14 | CNC(=O)[C@@H](NC(=O)c1nc(-c2ccc(C(F)(F)F)cc2F)n2c1CN(C)CCC2)C(C)(C)C [Compound 368, (S)-N-(3,3-dimethyl-1-(methylamino)-1-oxobutan-2-yl)-3-(2-fluoro-4-(trifluoromethyl)phenyl)-8-methyl-6,7,8,9-tetrahydro-5H-imidazo[1,5-a][1,4]diazepine-1-carboxamide] | +
15 | Cc1nnc([C@@H](NC(=O)c2nc(-c3ccccc3)n3c2CN(C)CC3)C(C)(C)C)o1 [Compound 201, (S)-N-(2,2-dimethyl-1-(5-methyl-1,3,4-oxadiazol-2-yl)propyl)-7-methyl-3-phenyl-5,6,7,8-tetrahydroimidazo[1,5-a]pyrazine-1-carboxamide] | +
16 | CCCc1nc(C(=O)N[C@H](C(=O)NC)C(C)(C)C)c2n1CCCN(C)C2 [Compound 485, (S)-N-(3,3-dimethyl-1-(methylamino)-1-oxobutan-2-yl)-8-methyl-3-propyl-6,7,8,9-tetrahydro-5H-imidazo[1,5-a][1,4]diazepine-1-carboxamide] | +
17 | CNC(=O)[C@@H](NC(=O)c1nc(-c2ccoc2)n2c1CN(C)CCC2)C(C)(C)C [Compound 440, (S)-N-(3,3-dimethyl-1-(methylamino)-1-oxobutan-2-yl)-3-(furan-3-yl)-8-methyl-6,7,8,9-tetrahydro-5H-imidazo[1,5-a][1,4]diazepine-1-carboxamide] | +
18 | CNC(=O)[C@@H](NC(=O)c1nc(-c2cccc(Cl)c2F)n2c1CN(C)CCC2)C(C)(C)C [Compound 356, (S)-3-(3-chloro-2-fluorophenyl)-N-(3,3-dimethyl-1-(methylamino)-1-oxobutan-2-yl)-8-methyl-6,7,8,9-tetrahydro-5H-imidazo[1,5-a][1,4]diazepine-1-carboxamide] | +
19 | C=C(C)c1nc(C(=O)N[C@H](C(=O)NC)C(C)(C)C)c2n1CCCN(C)C2 [Compound 441, (S)-N-(3,3-dimethyl-1-(methylamino)-1-oxobutan-2-yl)-8-methyl-3-(prop-1-en-2-yl)-6,7,8,9-tetrahydro-5H-imidazo[1,5-a][1,4]diazepine-1-carboxamide] | +
20 | CC(C)NC(=O)N1CCn2c(-c3ccccc3)nc(C(=O)NC3C4(C)CCC(C4)C3(C)C)c2C1 (centres unmarked) [Compound 171, N7-isopropyl-3-phenyl-N1-(1,3,3-trimethylbicyclo[2.2.1]heptan-2-yl)-5,6-dihydroimidazo[1,5-a]pyrazine-1,7(8H)-dicarboxamide] | +
21 | CNC(=O)[C@@H](NC(=O)c1nc(-c2ccc(OC)c(F)c2)n2c1CN(C)CCC2)C(C)(C)C [Compound 404, (S)-N-(3,3-dimethyl-1-(methylamino)-1-oxobutan-2-yl)-3-(3-fluoro-4-methoxyphenyl)-8-methyl-6,7,8,9-tetrahydro-5H-imidazo[1,5-a][1,4]diazepine-1-carboxamide] | +
22 | CCC/C=C/c1nc(C(=O)N[C@H](C(=O)NC)C(C)(C)C)c2n1CCN(C)C2 [Compound 268, (S,E)-N-(3,3-dimethyl-1-(methylamino)-1-oxobutan-2-yl)-7-methyl-3-(pent-1-enyl)-5,6,7,8-tetrahydroimidazo[1,5-a]pyrazine-1-carboxamide] | +
23 | CNC(=O)[C@@H](NC(=O)c1nc(-c2cc(F)c(F)c(F)c2)n2c1CN(C)CCC2)C(C)(C)C [Compound 375, (S)-N-(3,3-dimethyl-1-(methylamino)-1-oxobutan-2-yl)-8-methyl-3-(3,4,5-trifluorophenyl)-6,7,8,9-tetrahydro-5H-imidazo[1,5-a][1,4]diazepine-1-carboxamide] | +
24 | CNC(=O)[C@@H](NC(=O)c1nc(-c2ccccc2)n2c1CN(C(=O)c1ccco1)CC2)C(C)(C)C [Compound 128, (S)-N-(3,3-dimethyl-1-(methylamino)-1-oxobutan-2-yl)-7-(furan-2-carbonyl)-3-phenyl-5,6,7,8-tetrahydroimidazo[1,5-a]pyrazine-1-carboxamide] | −

Same assay, conditions: groups >100 nM-10 μM and >10 μM; cAMP, CHO-K1 hCB2; read-out: EC50 HCB2

Row | SMILES | EC50
25 | COC(=O)N1CCn2c(-c3ccccc3)nc(C(=O)NC3CCCCC3)c2C1 [Compound 187, methyl 1-(cyclohexylcarbamoyl)-3-phenyl-5,6-dihydroimidazo[1,5-a]pyrazine-7(8H)-carboxylate] | > 10000 nM
26 | CNC(=O)[C@H](C)NC(=O)c1nc(-c2ccccc2)n2c1CN(C)CC2 [Compound 78, (S)-7-methyl-N-(1-(methylamino)-1-oxopropan-2-yl)-3-phenyl-5,6,7,8-tetrahydroimidazo[1,5-a]pyrazine-1-carboxamide] | > 10000 nM
27 | O=C(Nc1ccccc1)c1nc(-c2ccccc2)n2c1CN(CCO)CC2 [Compound 151, 7-(2-hydroxyethyl)-N,3-diphenyl-5,6,7,8-tetrahydroimidazo[1,5-a]pyrazine-1-carboxamide] | > 10000 nM
28 | O=C(NCC1CCOCC1)c1nc(-c2ccccc2)n2c1CNCC2 [Compound 46, 3-phenyl-N-((tetrahydro-2H-pyran-4-yl)methyl)-5,6,7,8-tetrahydroimidazo[1,5-a]pyrazine-1-carboxamide] | > 10000 nM
29 | O=C(c1nc(-c2ccccc2)n2c1CN(S(=O)(=O)c1ccc(F)cc1)CC2)N1CCOCC1 [Compound 105, (7-(4-fluorophenylsulfonyl)-3-phenyl-5,6,7,8-tetrahydroimidazo[1,5-a]pyrazine-1-yl)(morpholino)methanone] | > 10000 nM

— patent US7517874B2 (priority 2007, dated 2009)
